This passage reports self-cleavage results from the RNAGym collection of RNA variant scans (doi:10.1093/nar/gkz1192).

The labels stand for the following.
B1: CPEB3 Ribozyme (parent)
chain: UAACAGGGGGCCACAGCAGAAGCGUUCACGUCGCAGCCCCUGUCAGAUUCUGGUGAAUCUGCGAAUUCUGCUGUAUAUCUC

The source gives no read counts; variants with many changes may rest on few reads.

This series covers variants of B1. The experiment in a line: self-cleavage, relative activity (ratio to wild type); higher = more cleavage; in vitro, sequencing. Summed up: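 After error-prone PCR and barcoding, CPEB3 ribozyme mutant libraries were transcribed with T7 RNA polymerase at 37°C for 5 hours, then given 15 min with DNase I before an EDTA stop, and they cleaved during both steps. Reverse transcription with template switching preceded Illumina sequencing. Relative activity divides a variant's cleaved/total read fraction by the unmutated ribozyme's. At least 5 reads were required per variant, and three batches were averaged.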
As to A45U U51A A56G A57G U69C A75G U80A, the self-cleavage is 0.11.
In the case of G46A U48C C50A U67C it was 0.08.
In the case of A47U U60C U66C it was 0; in that of A45U U49C U69G, 0.08.
In the case of A45U U49C U69A it was 0.19.
Take U48C A64G U80C: the self-cleavage amounted to 0.42.
The result for A45U U49C U54C reads 0.48; that for U48C A57G U76C, 1.19.
A47G U49C A64U: the self-cleavage was determined as 0.23.
Take U48C G52A U60C U67C A75U U78A: the self-cleavage was 0.2.
In the case of A45U U54C A56G A64G U67C it was 0.23.
In the case of A47G U48C A56G U78C it was 0.17; in that of A47U U48C U60A U69C U76C, 0.15.
The result for A47G A56U U58C U60A reads 0.17.
On to A47G U51C U58C U60C U72C U76G, for which the self-cleavage came to 0.39.
Turning to A47G A57G U72A U74C, the self-cleavage came out at 0.6.
The result for G46U A64G U69A U80C reads 0.19; that for A47G U58C U80C, 1.18; that for A47U G63A U69C, 0.22.
The result for U48C U49G A64U reads 0.18.
Regarding A47G A56U U72C, the self-cleavage came out at 0.63.
On to U48C U49A U51A, for which the self-cleavage amounted to 0.21.
The result for U48C A56U U69A reads 0.27.
As to A47G U54C A65G U69C, the self-cleavage was 0.19.
In the case of U48C A56G U67G it was 0.2; in that of A47G A57G U58C A64U, 0.48; in that of A47U U54C U69A, 0.19.
In the case of G46U A64G A65G it was 0.17; in that of A47G U49A U54A U58C A65U, 0.17; in that of A47U A57U U60C U69A G73A, 0.17.
For the variant G46U U51C A64U U66A U78C, the self-cleavage amounted to 0.13.
The result for A45U U49A A64G U78C reads 0.1; that for U48C U54C A56C U67C U76A U78C, 0.06; that for A47G U51G U67C U76A, 0.2.
In the case of A47C G53A U72A U74C it was 0.99; in that of U48C G53U U54A, 0.76; in that of A47G U51C A56U U60C U69C U76C, 0.13.
The result for A47G G52A U76A reads 1.25; that for A47U U48C G55A A64U U69G U76C U80C, 0.05.
Consider U48C A64U U80C, for which the self-cleavage was 0.17.
In the case of A47U U51C U60C U76C it was 0; in that of A45U U54C U66C U69C, 0.18; in that of A45U U69C U78A, 0.4.
Take A47G U67C U72A: the self-cleavage was found to be 0.17.
As to A47G U72A U80C, the self-cleavage stood at 1.23.
On to U48C A64U U67C C68U U69C, for which the self-cleavage came out at 0.18.
Regarding U48C A65G U66C, the self-cleavage was determined as 0.21.
In the case of A47G U72A U78C U80C it was 1.04.
In the case of A45U U66C U80G it was 0.17; in that of A47U U67A A77U, 0.28; in that of A45U U48C U51C A75G U80C, 0.13.
The result for A47G A56G U69C U78C reads 0.45.
For the variant U48C A56U U58A U60A U74A, the self-cleavage was found to be 0.15.
U48C U51C U72A U74G: the self-cleavage turned out to be 0.47.
In the case of A47G U60A U78C it was 0.39.
With A47G U60A A65G, the self-cleavage amounted to 0.21.
In the case of A47G U48C U51A A77G it was 0.13; in that of A45U U69A U72A, 0.28.
In the case of A45U U67C A75U it was 0.15; in that of A47G U51G A57C, 0.18.
The result for A47G U54C G63U U67A reads 0.49; that for A45U U51C A56U U58C, 0.13; that for A47G C62U A64U U66C U78C, 0.15.
Turning to U48C U51C U76C U80A, the self-cleavage was determined as 0.87.
Regarding A47G U60C A64G U72C, the self-cleavage was determined as 0.38.
For U48A A65G A77U, the self-cleavage came to 0.1.
The result for U48C A64G U78A reads 0.14; that for A47G U49C G55A A65G U67C, 0.05; that for A47G G63U U67G A75U U78C, 0.17.
As to A47G A57G U80A, the self-cleavage worked out at 0.98.
As for A45U U67C U80C, the self-cleavage amounted to 0.29.
On to U48C U54A U67A A77G, for which the self-cleavage turned out to be 0.26.
In the case of U48C U49C G53A U60A U66C U80C, the self-cleavage amounted to 0.1.
In the case of A47U U48C U72A it was 0.1; in that of A47G U51C A65G, 0.41; in that of A47U A56G U66C G70U, 0.21.
For the variant A47G U69A U72C U78C, the self-cleavage came to 0.62.
For G46A U60C U69C, the self-cleavage is 0.11.
The result for A47G A65U U72C reads 0.18; that for A47G A56G A64U U69A U76A, 0.28; that for U48C U51C U74A, 0.94.
In the case of A45U U66C U72G G73C it was 0.35.
U48A U49C A56U U72C: the self-cleavage is 0.52.
In the case of A45U U54G U67C U72C it was 0.19.
On to A47G C50A A64G, for which the self-cleavage was found to be 0.22.
In the case of A45U U72A U76C it was 0.42; in that of A47G U69G U72A U78A, 0.38.
Regarding U48A A57G U58A, the self-cleavage was determined as 0.17.
As for A45U U54G U58C A64G U67C U69C C81G, the self-cleavage came to 0.11.
The result for A45U U48C U66C U78C reads 0.08; that for A47G C59A U72A, 0.21.
As for A47G G53A U69G, the self-cleavage turned out to be 0.97.
With A47G U48C U60A, the self-cleavage was determined as 0.34.
The result for A47U U48C U51C U54C A75G reads 0.17; that for A47C U49A U74C, 0.23.
The result for A47G A64G U78C reads 0.76; that for U48C U49A U51A U72C, 0.54; that for U48C A56U U80C, 0.52.
For A47G U69A U74G, the self-cleavage amounted to 0.61.
Turning to U48A U54C C59U U66C, the self-cleavage came to 0.05.
The result for U48A U54G U72A U80G reads 0.39; that for A47G U54C A56G, 0.43; that for A45U U51A A64G A77U U80A, 0.34.
In the case of A47G U48C U54C U67C it was 0.11.
The result for G46A A47C A75G reads 0.11; that for A47G U49C U51A, 0.31.
As for A47U A65G U76C, the self-cleavage turned out to be 0.12.
U48A U51A G63U A65G U76A: the self-cleavage was 0.17.
The result for A47G A56G A64U reads 0.2.
In the case of A47G U48C A64U it was 0.12; in that of A45U U72C U78C U80A, 0.67.
The result for A47U A57G A64U G73A reads 0.23.
For U48A U54C U60A A65C, the self-cleavage was found to be 0.1.
Regarding G46U U51C A64G U72C, the self-cleavage was determined as 0.1.
The result for U48C A56G A57U reads 0.32; that for A45U U51C A57G, 0.27.
Consider U48C U49A U78C, for which the self-cleavage was 0.25.
For the variant A45U U60C A64U A75C, the self-cleavage is 0.25.
The result for G46U A47G U58C A65C C68U reads 0.1; that for A47U U49A U58C U76C, 0.21; that for A45U U60C A65G, 0.14.
Regarding U48A U60A U74C, the self-cleavage was found to be 0.33.
Take A47G U66C A77U U78A: the self-cleavage came out at 0.49.
In the case of A47G A64G U69G it was 0.28; in that of A47G A56U U67C, 0.16; in that of A47G U54C A65G, 0.36.
The result for G46C U72C A77G reads 0.2; that for A45U U51A U69C, 0.22.
The result for A45U U48C U67A U69A reads 0.28.
With U48C U51A A56G, the self-cleavage turned out to be 0.22.
The result for A47G A56G U58A U72C reads 0.29.
With A47G U78C U80C, the self-cleavage stood at 0.7.
U48C U54C U58C U74A: the self-cleavage came to 0.17.
The result for U48C U54C A56U U66C U76A reads 0.08; that for A47G C59A U69C, 0.05.
In the case of U48A U66C U67A it was 0.11.
Consider A47G U48C C62U U72A, for which the self-cleavage is 0.1.
For A45U U49G U51C, the self-cleavage worked out at 0.2.
The result for G46U A56U C62A U80C reads 0.1.
As for A47G U54C U66A, the self-cleavage was found to be 0.62.
The result for A47C G53A A77G reads 0.73; that for U48A G52U A56G U60C A75G C81U, 0.36.
In the case of U48C U49C A64G U78C it was 0.09.
The result for U48C U49C U58C reads 0.1; that for A47G U49A U60A, 0.16; that for A47U U54C U74C, 0.91.
As for A47U U51C G52C G55U, the self-cleavage amounted to 0.18.
The result for A47G U48C U69C reads 0.16; that for A47G A77C U80C, 0.6.
Regarding A47U G55C A56U U60C, the self-cleavage was 0.17.
Regarding A47C U51C U78C, the self-cleavage was 0.26.
Consider A45U U80C C81U, for which the self-cleavage was 0.65.
On to U48C U49C A56G, for which the self-cleavage was found to be 0.38.
A47G C62U A64G: the self-cleavage was 0.25.
For the variant G46A U54A A57U A77G, the self-cleavage worked out at 0.07.
As to A45U U80G C81U, the self-cleavage was determined as 0.87.
The result for U48C A65G U76C reads 0.17.
The result for A47U U58A A65C U80C C81U reads 0.11.
Take A47G U74A U80C: the self-cleavage worked out at 1.22.
Regarding U48C A57G U78C, the self-cleavage amounted to 1.11.
In the case of U48C U49C U72A U78A it was 0.65.
In the case of A45U U67A U69C it was 0.33; in that of A47G U49C U60C C62U U66C, 0.07.
Take U48C C79U U80A: the self-cleavage came out at 0.92.
A47U A57G U66C: the self-cleavage is 0.15.
The result for A45U U51A U58C U80C reads 0.09; that for G46U A56G G73A, 0.41.
